Here are results for one compound from patent publication US8415154B2, “Compositions and methods for producing adaptive regulatory T cells” (Trustees of Dartmouth College, priority 2007, dated 2013).

This assay has as its system CD4+Foxp3− T cells. The experiment in a line: TGFβ1-driven conversion of CD4+Foxp3− T cells to Foxp3+ (Foxp3/GFP) in vitro. The source says:
Cell Preparation. B cells and dendritic cells (DCs) were harvested from the spleens, and CD4+FoxP3− cells were isolated from spleens, peripheral and mesenteric lymph nodes. For B cell and T cells, single-cell suspensions were generated by crushing organs by sterile slides, and purified using by positive selection using either αCD4 or αCD19 labeled magnetic beads (Miltenyi Biotech, Auburn, Calif.). T cells were further purified by FACS-sorting of the CD4FoxP3/GFP− fraction, with purity always exceeding 99% (BD FACSARIA; BD Biosciences, San Jose, Calif.). For CD11c+ positive selection, spleens were harvested and incubated at 37° C. in RPMI with 50 μg/ml DNase I (Sigma, St. Louis, Mo.) and 250 μg/ml LIBERASE (Roche, Indianapolis, Ind.) for 1 hour and pushed through a 100 μM filter to create a single-cell suspension, and then purified using αCD11c magnetic beads (Miltenyi Biotech). Cell preps always exceeded 98% in purity. For small intestine lamina propria lymphocyte preparations, intestines were removed and Peyer's Patches were excised and used for further analysis. The intestines were washed with cold phosphate-buffered saline (PBS), split open, and cut into 1-cm pieces. After a 30-minute incubation in R0 to release the intestinal epithelial lymphocytes (IELs), intestines were vortexed, filtered using a 100 μM filter and washed extensively. Intestines were then digested for 2 hours using 50 μg/ml DNase I (Sigma) and 250 μg/ml LIBERASE (Roche), whereupon they were pushed through a 100 μM filter. The cellular suspension was centrifuged and suspended in 40% PERCOLL, and overlaid on 60% PERCOLL. The PERCOLL gradient was spun at 400 g at room temperature for 25 minutes with no brake, with the buffy (lymphocyte) coat removed for further use. As indicated, APCs were pulsed with ISQ peptide at 10 μg/ml for 1 hour in c-RPMI in six-well plates at a concentration of 10×10^6 cells/ml, and were then washed, counted, and used.
Cell Culture Reagents. […]

“And” between values parts separate entries of the source, which are not always exact repeats. Identical values can stand only once.

Consider `CC1=C(/C=C/C(C)=C/C=C/C(C)=C/C(=O)O)C(C)(C)CCC1` [retinoic acid, all-trans retinoic acid], for which the “total number of TGFβ1-dependent Foxp3+ cells” value (five days of culture, high, low and no co-stimulation) was “greatly enhanced the total number of TGFβ1-dependent Foxp3+ cells”. Besides, the “conversion rate of CD4+FoxP3− to CD4+FoxP3+ T cells” value (five days, plate-bound αCD3/αCD28 with TGFβ1, IL-2 and retinoic acid) is ~100% and > 90%. Further, the “conversion in co-stimulation assay” value (plate-bound αCD3 10 μg/ml, titrated αCD28, IL-2 and TGFβ1) is “enhanced conversion across all concentrations of αCD28”.
